The values below come from the supplement of paper PMC12582362.

Counter-ions that a name gives are not always drawn. The campaign covered roughly 1,500 compounds. About 30 (2%) showed activity.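 Rule for the calls: active = robust z-score below -2; a few such results were not called.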 This is one part of the list.

The experiment deals with optoTopBP1 Flp-In 293 T-REx (HEK293) cells. Briefly: light-induced TopBP1 condensate (nuclear foci) count, plate-normalised robust z-score vs non-control wells; higher = more TopBP1 condensates (negative = condensation inhibitor), active = hit call of the paper. The conditions noted are these: 10 µM; incubation time 2 h.
On to `CC(=O)O[C@]1(C(C)=O)CC[C@H]2[C@@H]3C=C(Cl)C4=CC(=O)[C@@H]5C[C@@H]5[C@]4(C)[C@H]3CC[C@@]21C` [Cyproterone acetate], for which the “light-induced TopBP1 condensate (z-score)” value was inactive: 0.713. For the molecule `Clc1ccc(CO/N=C(\Cn2ccnc2)c2ccc(Cl)cc2Cl)c(Cl)c1` [Oxiconazole Nitrate], the “light-induced TopBP1 condensate (z-score)” value is inactive: 1.32. Take `CCCSc1nc(N[C@@H]2C[C@H]2c2ccc(F)c(F)c2)c2nnn([C@@H]3C[C@H](OCCO)[C@@H](O)[C@H]3O)c2n1` [Ticagrelor]: the “light-induced TopBP1 condensate (z-score)” value was inactive: -0.733. Consider `CC(=O)OC[C@H]1O[C@@H](n2ncc(=O)[nH]c2=O)[C@H](OC(C)=O)[C@@H]1OC(C)=O` [Azaribine], for which the “light-induced TopBP1 condensate (z-score)” value is inactive: 0.84. For `O=C(O)COCCN1CCN(C(c2ccccc2)c2ccc(Cl)cc2)CC1` (centres undefined) [Cetirizine dihydrochloride], the “light-induced TopBP1 condensate (z-score)” value is inactive: 0.614. For `N[C@@H]1CONC1=O` [D-cycloserine] the value was inactive: 0.143; for `N=C(N)Nc1ccc(C(=O)Oc2ccc3cc(C(=N)N)ccc3c2)cc1` [Nafamostat Mesylate], inactive: 1.49.

As to `Clc1ccc(Cn2c(CN3CCCC3)nc3ccccc32)cc1` [Clemizole hydrochloride], the “light-induced TopBP1 condensate (z-score)” value is inactive: -0.267. `COc1cc2nc(N(C)CCCNC(=O)C3CCCO3)nc(N)c2cc1OC` (centres undefined) [Alfuzosin hydrochloride]: the “light-induced TopBP1 condensate (z-score)” value was inactive: 0.142. With `CC(=O)Oc1ccccc1C(=O)O` [Acetylsalicylic acid], the “light-induced TopBP1 condensate (z-score)” value is inactive: -0.801.

Turning to `N=C(N)NS(=O)(=O)c1ccc(N)cc1` [Sulfaguanidine], the “light-induced TopBP1 condensate (z-score)” value was inactive: -0.0573. With `CC1=C(/C=C/C(C)=C/C=C/C(C)=C/C(=O)O)C(C)(C)CCC1` [Retinoic acid], the “light-induced TopBP1 condensate (z-score)” value was inactive: -0.822. For `NC(=O)c1cc[n+](CC2=C(C(=O)[O-])N3C(=O)[C@@H](NC(=O)[C@@H](c4ccccc4)S(=O)(=O)O)[C@H]3SC2)cc1` [Cefsulodin sodium salt], the “light-induced TopBP1 condensate (z-score)” value is inactive: 0.128.

For the molecule `CCc1c(C)[nH]c2c1C(=O)C(CN1CCOCC1)CC2` (centres undefined) [Molindone hydrochloride], the “light-induced TopBP1 condensate (z-score)” value was inactive: 1.21. Consider `N[C@@H](CCC(=O)N[C@@H](CS)C(=O)NCC(=O)O)C(=O)O` [Glutathione], for which the “light-induced TopBP1 condensate (z-score)” value is inactive: 1.35. Regarding `CC1=C(C(=O)O)N2C(=O)[C@@H](NC(=O)[C@H](N)C3=CCC=CC3)[C@H]2SC1` [Cephradine monohydrate], the “light-induced TopBP1 condensate (z-score)” value was inactive: -0.619. For `CCC1(c2ccccc2)NC(=O)N(C)C1=O` (centres undefined) [Mephenytoin] the value was inactive: 0.477; for `Cc1ncc(CO)c(CO)c1O` [Pyridoxine hydrochloride], inactive: -0.223. For the molecule `CCN(CC)CCOC(=O)c1ccc(N)cc1` [Procaine hydrochloride], the “light-induced TopBP1 condensate (z-score)” value is inactive: 0.888. Turning to `CC[C@H](C)C(=O)O[C@H]1C[C@@H](C)C=C2C=C[C@H](C)[C@H](CC[C@@H]3C[C@@H](O)CC(=O)O3)[C@H]21` [Lovastatin], the “light-induced TopBP1 condensate (z-score)” value is inactive: 0.482.

Consider `Cc1c(C)c2c(c(C)c1O)CCC(C)(C(=O)O)O2` (centres undefined) [Trolox], for which the “light-induced TopBP1 condensate (z-score)” value is inactive: -0.219. For the molecule `CC(=O)N[C@@H](CS)C(=O)O` [Acetylcysteine], the “light-induced TopBP1 condensate (z-score)” value is inactive: 1.19. For `CC(=O)O[C@H]1C[C@@]2(C)[C@@H](C[C@@H](O)[C@H]3[C@@]4(C)CC[C@@H](O)[C@@H](C)[C@@H]4CC[C@@]32C)/C1=C(\CCC=C(C)C)C(=O)O` [Fusidic acid sodium salt], the “light-induced TopBP1 condensate (z-score)” value was inactive: 0.0039. As to `CN(C)CCn1nnnc1SCC1=C(C(=O)O)N2C(=O)[C@@H](NC(=O)Cc3csc(N)n3)[C@H]2SC1` [Cefotiam hydrochloride], the “light-induced TopBP1 condensate (z-score)” value was inactive: 1.13. For `Nc1ccc(S(=O)(=O)Nc2cnc3ccccc3n2)cc1` [Sulfaquinoxaline sodium salt] the value was inactive: 1.12; for `CNC[C@H](O)[C@@H](O)[C@H](O)[C@H](O)CO` [Meglumine], inactive: -0.735; for `NCCCC(O)(P(=O)(O)O)P(=O)(O)O` [Alendronate sodium], inactive: -0.706. Take `NC(=O)OCC(COC(N)=O)c1ccccc1` [Felbamate]: the “light-induced TopBP1 condensate (z-score)” value is inactive: -0.832. In the case of `Cc1ccnc(NS(=O)(=O)c2ccc(N)cc2)n1` [Sulfamerazine], the “light-induced TopBP1 condensate (z-score)” value is inactive: 1.3. On to `C[C@H]1NC(=O)NC1=O` [Methylhydantoin-5-(D)], for which the “light-induced TopBP1 condensate (z-score)” value is inactive: -0.483. `N=C(N)NCc1cccc(I)c1` [Iobenguane sulfate]: the “light-induced TopBP1 condensate (z-score)” value was inactive: 0.0541. The result for `CC(C)(C)c1ccc(C(=O)CCCN2CCC(OC(c3ccccc3)c3ccccc3)CC2)cc1` [Ebastine] reads inactive: -0.957. `CNC(=O)c1c(I)c(C(=O)NCC(=O)Nc2c(I)c(C(=O)O)c(I)c(C(=O)NCCO)c2I)c(I)c(N(C)C(C)=O)c1I` [Ioxaglic acid]: the “light-induced TopBP1 condensate (z-score)” value was inactive: 1.43. For `CCCCNc1cc(C(=O)O)cc(S(N)(=O)=O)c1Oc1ccccc1` [Bumetanide] the value was inactive: -0.602; for `CCOC(=O)[C@H](CCc1ccccc1)N[C@@H](C)C(=O)N(CC(=O)O)C1Cc2ccccc2C1` [Delapril Hydrochloride], inactive: 0.988; for `CC(=O)Oc1ccccc1C(=O)Oc1ccccc1C(=O)O` [Acetylsalicylsalicylic acid], inactive: 0.617.

Take `Cn1cc(C(=O)[C@@H]2CCc3[nH]cnc3C2)c2ccccc21` [Ramosetron hydrochloride]: the “light-induced TopBP1 condensate (z-score)” value was inactive: -0.549. As for `CC(C)NC[C@H](O)COc1cccc2ccccc12` [(S)-propranolol hydrochloride], the “light-induced TopBP1 condensate (z-score)” value is inactive: 1.1. In the case of `CC(=O)CCCCn1c(=O)c2c(ncn2C)n(C)c1=O` [Pentoxifylline], the “light-induced TopBP1 condensate (z-score)” value is inactive: -0.0825. Regarding `CN1C(=O)OC(C)(C)C1=O` [Trimethadione], the “light-induced TopBP1 condensate (z-score)” value was inactive: 0.285. Consider `CN(C/C=C/c1ccccc1)Cc1cccc2ccccc12` [Naftifine hydrochloride], for which the “light-induced TopBP1 condensate (z-score)” value was inactive: 0.672.

For the molecule `OCCN1CCN(CCCN2c3ccccc3C=Cc3ccccc32)CC1` [Opipramol dihydrochloride], the “light-induced TopBP1 condensate (z-score)” value is inactive: -0.102. For the molecule `Nc1c(CC(=O)O)cccc1C(=O)c1ccc(Br)cc1` [Bromfenac], the “light-induced TopBP1 condensate (z-score)” value was inactive: -1.27.

Consider `CCCC(CCC)C(=O)O[C@H]1C[C@H]2CC[C@@H](C1)[N+]2(C)C` [Anisotropine Methylbromide], for which the “light-induced TopBP1 condensate (z-score)” value was inactive: 0.12. With `CN(C)CCCSC(=N)N` [Dimaprit dihydrochloride], the “light-induced TopBP1 condensate (z-score)” value is inactive: 1.17.

Regarding `C[C@H](Cc1cc2c(c(C(N)=O)c1)N(CCCO)CC2)NCCOc1ccccc1OCC(F)(F)F` [Silodosin], the “light-induced TopBP1 condensate (z-score)” value was inactive: -0.709. As for `Cc1onc(-c2c(F)cccc2Cl)c1C(=O)N[C@@H]1C(=O)N2[C@@H]1SC(C)(C)[C@@H]2C(=O)O` [Flucloxacillin sodium], the “light-induced TopBP1 condensate (z-score)” value is inactive: 1.42. As to `O=C(NCCN1CCOCC1)c1ccc(Cl)cc1` [Moclobemide], the “light-induced TopBP1 condensate (z-score)” value is inactive: 0.419. Consider `NS(=O)(=O)c1cc(Cl)c(Cl)c(S(N)(=O)=O)c1` [Dichlorphenamide], for which the “light-induced TopBP1 condensate (z-score)” value was inactive: 0.657.

Take `CCN1CCCC(OC(=O)C(c2ccccc2)c2ccccc2)C1` (centres undefined) [Piperidolate hydrochloride]: the “light-induced TopBP1 condensate (z-score)” value is inactive: 0.54. Turning to `C[C@@H]1C[C@H]2[C@@H]3C[C@H](F)C4=CC(=O)C=C[C@]4(C)[C@@]3(Cl)[C@@H](O)C[C@]2(C)[C@H]1C(=O)COC(=O)C(C)(C)C` [Clocortolone pivalate], the “light-induced TopBP1 condensate (z-score)” value is inactive: -0.381.

Take `OC(c1cc(C(F)(F)F)nc2c(C(F)(F)F)cccc12)C1CCCCN1` (centres undefined) [Mefloquine hydrochloride]: the “light-induced TopBP1 condensate (z-score)” value is inactive: -1.69. The result for `CNCCCC12CCC(c3ccccc31)c1ccccc12` [Maprotiline hydrochloride] reads inactive: -0.0912; that for `C[C@]12C=CC(=O)C=C1CC[C@H]1[C@@H]3C[C@@H](O)[C@](O)(C(=O)CO)[C@@]3(C)C[C@H](O)[C@@]12F` [Triamcinolone], inactive: 0.152. Turning to `CC1(C)O[C@@H]2C[C@H]3[C@@H]4CCC5=CC(=O)CC[C@]5(C)[C@@]4(F)[C@@H](O)C[C@]3(C)[C@]2(C(=O)CCl)O1` [Halcinonide], the “light-induced TopBP1 condensate (z-score)” value was inactive: 0.276. For the molecule `CCN(CC)C(=O)/C(C#N)=C/c1cc(O)c(O)c([N+](=O)[O-])c1` [Entacapone], the “light-induced TopBP1 condensate (z-score)” value was inactive: 0.112.

As for `C[C@@H](O)[C@H]1C(=O)N2C(C(=O)O)=C(S[C@@H]3CN[C@H](C(=O)N(C)C)C3)[C@H](C)[C@H]12` [Meropenem], the “light-induced TopBP1 condensate (z-score)” value was inactive: 0.541. On to `CC(=O)O[C@H]1C[C@@H]2CC[C@@H]3[C@H](CC[C@@]4(C)[C@H]3C[C@H]([N+]3(C)CCCCC3)[C@@H]4OC(C)=O)[C@@]2(C)C[C@@H]1N1CCCCC1` [Vecuronium bromide], for which the “light-induced TopBP1 condensate (z-score)” value is inactive: 0.392. In the case of `CCCCN(CCCC)CCC(O)c1cc2c(Cl)cc(Cl)cc2c2cc(C(F)(F)F)ccc12` (centres undefined) [Halofantrine hydrochloride], the “light-induced TopBP1 condensate (z-score)” value is inactive: -0.232.

Take `C#C[C@]1(O)CC[C@H]2[C@@H]3CCc4cc(O)ccc4[C@H]3CC[C@@]21C` [Ethinylestradiol]: the “light-induced TopBP1 condensate (z-score)” value is inactive: 0.709. Regarding `CCOC(=O)C1=C(C)NC(C)=C(C(=O)OCC)C1c1ccccc1/C=C/C(=O)OC(C)(C)C` [Lacidipine], the “light-induced TopBP1 condensate (z-score)” value was inactive: -0.21.

Turning to `CCOc1cc(CC(=O)N[C@@H](CC(C)C)c2ccccc2N2CCCCC2)ccc1C(=O)O` [Repaglinide], the “light-induced TopBP1 condensate (z-score)” value was inactive: -0.108.

For the molecule `CC(=O)OCC(=O)[C@@]1(O)[C@H](C)C[C@H]2[C@@H]3CCC4=CC(=O)C=C[C@]4(C)[C@@]3(F)[C@@H](O)C[C@@]21C` [Dexamethasone acetate], the “light-induced TopBP1 condensate (z-score)” value is inactive: 0.214. As for `COc1ncnc(NS(=O)(=O)c2ccc(N)cc2)c1OC` [Sulfadoxine], the “light-induced TopBP1 condensate (z-score)” value was inactive: 0.123.
